Source: a collection of fitness landscapes (doi:10.1016/j.celrep.2020.107928)
The full ranking holds about 81,000 sequences; the median of “one-hybrid fitness for binding parS DNA” is about -0.17, and the highest 2% start at about 0.51. The list shows a part of the results.

B1: Caulobacter ParB omega fusion; a variant is named by its letters at X, in order, B8GW30 (parent)
chain: MESVVVGEPGMSEGRRGLGRGLSALLGEVDAAPAQAPGEQLGGSREAPIEILQRNPDQPRRTFREEDLEDLSNSIREKGVLQPILVRPSPDTAGEYQIVAGERAWRAAQRAGLKTVPIMVRELDDLAVLEIGIIENVQRADLNVLEEALSYKVLMEKFERTQENIAQTIGKSXSHVANXMRLLXLPDEVQSYLVSGELTAXHARAIAAAADPVALAKQIIEGGLSVRETEALARKAPNLSAGKSKGGRPPRVKDTDTQALESDLSSVLGLDVSIDHRGSTGTLTITYATLEQLDDLCNRLTRGI

Variants of: B1
Experiment: one-hybrid fitness for binding parS DNA (scaled: cognate 1, non-cognate 0); higher = stronger binding
Conditions: with parS DNA site
Summary of the method: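 Fitness is the rescaled log change in variant-to-wild-type read ratio, measured by Illumina sequencing of plasmids before and after bacterial one-hybrid selection. The scale puts cognate at 1 and non-cognate at 0. Selection of Caulobacter ParB libraries, four specificity codons randomised, took place in E. coli USO with a HIS3 reporter, site 19 bp from the promoter, over 48 hours at 37°C on M9-minus-histidine with 0.1 mM IPTG and 5 mM 3-AT.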

| Variant | one-hybrid fitness for binding parS DNA |
| --- | --- |
| SLHS | ≤ 0.2 |
| LYDR | ≤ 0.2 |
| VALL | ≤ 0.2 |
| ELVT | ≤ 0.2 |
| GEDM | ≤ 0.2 |
| RGMR | ≤ 0.2 |
| CWSY | ≤ 0.2 |
| KGKR | ≤ 0.2 |
| GARR | ≤ 0.2 |
| SRNE | ≤ 0.2 |
| TCSC | ≤ 0.2 |
| VCEA | ≤ 0.2 |
| YNYS | ≤ 0.2 |
| YRCV | ≤ 0.2 |
| VDEW | ≤ 0.2 |
| PLIY | ≤ 0.2 |
| HRNC | 0.288 |
| TCRM | ≤ 0.2 |
| GIYR | ≤ 0.2 |
| PSLR | ≤ 0.2 |
| HYVE | ≤ 0.2 |

| Variant | one-hybrid fitness for binding parS DNA |
| --- | --- |
| DYSR | ≤ 0.2 |
| CKKV | ≤ 0.2 |
| SWSS | ≤ 0.2 |
| AMYG | ≤ 0.2 |
| VLLY | ≤ 0.2 |
| KAIT | ≤ 0.2 |
| YTPC | ≤ 0.2 |
| QAMV | ≤ 0.2 |
| IYGT | ≤ 0.2 |
| VKAC | ≤ 0.2 |
| IGLW | ≤ 0.2 |
| NFGR | ≤ 0.2 |
| MADF | ≤ 0.2 |
| AMFN | ≤ 0.2 |
| WKIS | ≤ 0.2 |
| WKDG | ≤ 0.2 |
| VYWG | ≤ 0.2 |
| RMMK | ≤ 0.2 |
| EQWS | ≤ 0.2 |
| QIWP | ≤ 0.2 |
| SSRC | ≤ 0.2 |

| Variant | one-hybrid fitness for binding parS DNA |
| --- | --- |
| PAQW | ≤ 0.2 |
| NGMI | ≤ 0.2 |
| YPSD | ≤ 0.2 |
| KKGD | ≤ 0.2 |
| NVCW | ≤ 0.2 |
| ISPK | ≤ 0.2 |
| GAVR | ≤ 0.2 |
| KISD | ≤ 0.2 |
| NACT | ≤ 0.2 |
| EKGR | ≤ 0.2 |
| HCLQ | ≤ 0.2 |
| LWPR | ≤ 0.2 |
| VAPY | ≤ 0.2 |
| SCSF | ≤ 0.2 |
| LSHN | ≤ 0.2 |
| RPQW | ≤ 0.2 |
| CPTK | ≤ 0.2 |
| VGHH | ≤ 0.2 |
| YHIR | ≤ 0.2 |
| RFRP | ≤ 0.2 |
| QWAS | ≤ 0.2 |

| Variant | one-hybrid fitness for binding parS DNA |
| --- | --- |
| RGER | ≤ 0.2 |
| CQWC | ≤ 0.2 |
| PTWG | ≤ 0.2 |
| KWGC | ≤ 0.2 |
| AILW | ≤ 0.2 |
| HVCS | ≤ 0.2 |
| QISK | ≤ 0.2 |
| QWRK | ≤ 0.2 |
| AMRH | ≤ 0.2 |
| DTMT | ≤ 0.2 |
| NFQR | ≤ 0.2 |
| RSIL | ≤ 0.2 |
| PYKL | ≤ 0.2 |
| KPTV | ≤ 0.2 |
| IDAG | ≤ 0.2 |
| NEFC | ≤ 0.2 |
| GSPR | ≤ 0.2 |
| VCVC | ≤ 0.2 |
| EFNL | ≤ 0.2 |
| MPPV | ≤ 0.2 |
| FCQL | ≤ 0.2 |
